Laboratory results taken from PubChem BioAssay AID1458 (National Center for Advancing Translational Sciences (NCATS), 2008).
Among all 210,000 compounds or so, about 5,900 (2.8%) were called active. This list was built around the results that the source calls inconclusive (neither active nor inactive); the mix of calls is not that of the screen. Calls follow the shape of the dose curve; as a rule, active = well fitted activation curve with a large enough effect; inconclusive = small, poorly fitted or top-dose-only effect; inactive = no such curve, though single readings can be large or run the other way. Where the call is inconclusive, the potency comes from a doubtful curve fit.

Assay: qHTS Assay for Enhancers of SMN2 Splice Variant Expression; also: nearly all actives have a fitted effect of over 55% in size; as to activity change, positive = activation: % of control where 0% means no effect
Settings: HEK293 SMN2-luciferase splicing reporter, luminescence, 30-36 h; activity change, positive = activation: at 46.1 µM (top of the series)
Description: NIH Chemical Genomics Center [NCGC] NIH Molecular Libraries Probe Production centers Network [MLPCN] MLPCN Grant: R03 MH084179-01 Assay Submitter (PI): Elliot Androphy NCGC Assay Overview: Spinal muscular atrophy (SMA) is caused by insufficient levels of the survival motor neuron protein SMN. The SMN locus on chromosome 5q13 contains two inverted copies of SMN called SMN1 and SMN2 which are 99% identical at the amino acid level. SMN1 is a fully functional protein and SMN2 skips exon 7 90% of the time. Skipping of exon 7 produces non-functional protein product. 10% of the SMN2 protein includes exon 7 and is fully functional. In the SMA disease state, mutations in the SMN1 locus are the cause of the disease state. Because only 10% of SMN2 is of the fully functional form, it is not sufficient to overcome the deficiency produced by the loss of the SMN1 product. A therapy that either increase the amount of SMN2 product made or to increase the inclusion of exon 7 has been proposed for the treatment of SMA. We have designed an assay to identify small molecules that can increase the amount of functional SMN2 product by appending a luciferase reporter gene after the native SMN2 gene, such that inclusion of exon 7 in the expressed product places the luciferase sequence in frame, thus generating functional luciferase enzyme.
NCGC Assay Protocol Summary: This screen utilizes a luciferase reporter gene assay, combining the promoter and splicing based cassettes in tandem with the major portion of the native SMN2 cDNA, and then transfected into HEK293 cells. Compounds that increase luciferase signal presumably enhance expression of the functional SMN2 splice variant. Passaging media contained DMEM w/ glutamax (+phenol red) 10% FCS, 1x pen/strep, 200 ug/ml hygro, 1x sodium pyruvate. Assay media contained DMEM w/ glutamax (-phenol red) 10% FCS, 1x pen strep, 1x pyruvate Sequence, Parameter, Value, Description (1) Cells, […], 2000 cells/well, 1536 TC treated White solid bottom plate (2) Time, 10-12 hours, 37C 5% CO2 (3) Compound, 23 nl, MLSMR Library (4) Control Compound, 23 nL, Sodium butyrate st 4.5mM (final) conc (5) Time, 30-36 hours, 37C 5% CO2 (6) Reagent, 3 ul, One Glo (TM) from Promega (7) Time, 5-15 minutes, Room temp (8) Detector, Viewlux: luminescent read, 60 second integration, high speed 2x binning Keywords: Spinal muscular atrophy, SMA, SMN2, high throughput screening, MLSMR, MLPCN, NIH Roadmap, qHTS and NCGC
Potency is read from the fitted curve at half-maximal effect; tags tell the direction and shape of the fitted curve.

SMILES	Potency	activity change, positive = activation
Cc1ccccc1-c1nc(Cc2ccccc2)no1	inconclusive: 17.8 µM [activator, single point]	
CSc1cccc(NC(=O)CSc2ccc(C)cc2)c1	inactive	
Cc1ccn2cc(-c3cccc(NC(=O)c4cccs4)c3)nc2c1	inconclusive: 22.4 µM [activator, partial curve, poor fit]	
CCOc1ccc(CSC(CC(=O)O)C(=O)O)cc1 (stereo not drawn)	inconclusive: 5.01 µM [activator, single point]	
CC(C)COc1ccc(-c2cc(C(=O)NN)[nH]n2)cc1	inconclusive: 12.6 µM [activator, partial curve, poor fit]	
CCOC(=O)c1ccc(NC(=O)Cn2nnc(-c3ccc(F)cc3)n2)cc1	inconclusive: 10 µM [activator, partial curve]	
Cc1ccc(OCC(=O)Nc2ccc(-c3nc4ccccc4o3)cc2)c(C)c1	inconclusive: 5.62 µM [activator, partial curve]	
OC1CCN(c2cc(-c3ccccc3)nc3cc(-c4ccc(F)cc4)nn23)CC1	inactive	
COc1c(/C=N/Nc2nc(N3CCCCC3)nc(N3CCCCC3)n2)cccc1[N+](=O)[O-]	inconclusive: 0.0032 µM [activator, full curve]	
CCCCN1C(=O)/C(=c2\sc3nc(=O)c(-c4ccccc4)nn3c2=O)c2ccccc21	inactive	
COc1ccc(-c2cc(C(F)(F)F)nc(-n3cc(Cl)cn3)n2)cc1	inactive	
COc1ccccc1-c1c(NC(=O)c2ccco2)n(-c2ccccc2)nc(C)c1=O	inconclusive: 3.55 µM [activator, partial curve]	
COc1ccc(-c2cc(C(=O)NCC3CCCO3)c3cc(C)ccc3n2)cc1 (stereo not drawn)	inconclusive: 12.6 µM [activator, single point]	
O=C(/C=C/c1ccc2c(c1)OCO2)c1ccccc1	inactive	
Cc1cc([N+](=O)[O-])c2[nH]c(C(=O)N/N=C/c3ccccc3C(=O)O)c(-c3ccccc3)c2c1	inconclusive: 0.891 µM [activator, full curve, poor fit]	
CCOC(=O)Cn1c(=O)oc2cc(S(=O)(=O)N3CCN(c4cc(C)ccc4C)CC3)ccc21	inactive	
c1ccc(CNc2ccnc(-c3ccc4c(c3)OCO4)n2)cc1	active: 12.6 µM	
Cc1ccc(S(=O)(=O)c2nc(-c3cccc(Cl)c3)oc2NCc2ccccc2)cc1	inactive	
O=C(c1cccc(COc2cccc3ccccc23)c1)N1CCCC1	active: 22.4 µM	
CCC#CCOCC(=O)Nc1ccccc1	inactive	
CCOc1cc(/C=C/c2nc3ccccc3s2)ccc1OCC(=O)N1CCOCC1	inactive	
Nc1ccc(-n2nncc2-c2ccco2)cc1	inconclusive: 6.31 µM [activator, partial curve]	
CC(=O)Oc1ccc(/C=N/NC(=S)Nc2ccccc2)cc1	active: 11.2 µM	
CCCOC(=O)c1c(-c2ccc(C)cc2C)csc1NC(=O)C1C2CCC(O2)C1C(=O)O (stereo not drawn)	inactive	

SMILES	Potency	activity change, positive = activation
COc1cc2c(cc1NC(=O)C(C)Oc1ccccc1)oc1ccccc12 (stereo not drawn)	inconclusive: 12.6 µM [activator, single point]	
Cc1cc(N2CCOCC2)n2ncc(-c3ccccc3)c2n1	active: 2.24 µM	
CC(=O)N1CC=CC1(CC(C)C)C(=O)NCCN1CCOCC1 (stereo not drawn)	inconclusive: 10 µM [activator, single point]	
O=C(O)C[C@H](Cc1ccc2c(c1)OCO2)C(=O)O		inactive: -24.5% [at 9.22 µM]
COc1ccc(C=Nc2c(O)ccc3ccccc23)cc1OC	inconclusive: 5.62 µM [activator, single point]	
Cc1ccc(C(=O)NCCc2ccncc2)cc1	inconclusive: 35.5 µM [activator, single point]	
N#Cc1c(N)nc2c(c1-c1ccccc1)CCC2	inconclusive: 14.1 µM [activator, single point]	
Fc1ccc(NCc2cccnc2)cc1F	inactive	
COc1cc(-c2noc(-c3cccs3)n2)cc(OC)c1OC	inconclusive: 35.5 µM [activator, single point]	
Cc1ccc(C(=O)c2cnc3ccccc3c2-c2ccccc2)cc1	inactive	
Cc1nn(-c2ccccc2)c2sc(C(=O)O)cc12	inconclusive: 5.01 µM [activator, full curve]	
Cc1nc2c(-c3ccccc3)c(C)[nH]n2c(=O)c1Cc1ccc(C(C)C)cc1	inactive	
O=C(O)c1ccc(CNCc2cccc(Cl)c2Cl)cc1	inconclusive: 10 µM [activator, partial curve]	
Cc1nc2ccc(C(=O)Nc3cccc([N+](=O)[O-])c3)cc2s1	inconclusive: 7.08 µM [activator, partial curve]	
Cn1c(-n2c(CCN3C(=O)c4ccccc4C3=O)nc3ccccc3c2=O)nc2ccccc21	inconclusive: 3.55 µM [activator, full curve]	
Cn1cccc1C(=O)Nc1nccs1	inconclusive: 12.6 µM [activator, single point]	
CCC(C(=O)O)n1nnc(-c2ccc(-c3ccc(OC)cc3)cc2)n1 (stereo not drawn)	inconclusive: 35.5 µM [activator, partial curve, poor fit]	
COc1ccc(N2CCN(c3nc4c(c(=O)[nH]c(=O)n4C)n3Cc3cccc(C)c3)CC2)cc1	inactive	
COc1ccc(-n2c(C)cc(C(=O)Cn3nnc4ccccc4c3=O)c2C)cc1	inactive	
CCn1cc(Br)c(C(=O)N(C)Cc2ccccc2)n1	inconclusive: 0.01 µM [activator, full curve]	
COc1ccc(CNC(=O)Cn2ncn3cccc3c2=O)cc1	active: 11.2 µM	
CCOC(=O)N1CCN(C(=O)CN(C2CCCCC2)S(C)(=O)=O)CC1	inconclusive: 2.24 µM [activator, partial curve, poor fit]	
Cc1cc(=O)oc2cc(NC(=O)C3CCCC3)ccc12	inconclusive: 14.1 µM [activator, single point]	
CSc1n[nH]c(NCc2ccccc2)n1	inconclusive: 0.0028 µM [activator, full curve, poor fit]	
